# Results taken from the supplement of paper PMC8728848.
# The list shows a part of the results.
# B1: Pwp2 (Candida glabrata) (protein)
# chain: MGSSHHHHHHSSGLVPRGSHMASKNPVELNNVCTFPNDYGRIPGFTVLVGRLGLLISASDYKELLRYPGAFLIATQDTMTTSPNFELTGFPFFTGLYGLTVFPLDLLVELRGYFVPPNSGQYTFTLSDSDDAAIIFLGNPSAFPCGDLQNWPKPSEEDITVTDHLFPSRTLYLIEGVAYPMRIAYYNGIGAGRLNAAFIDPSGTRHTNWEGYIWQYDPCSTCTYS
# What was measured:
# Assay in all cases: glycan array binding signal (z-score within array); higher = stronger binding
# Conditions in all cases: glycan notation: IUPAC condensed, linker removed
# [1] = biological target: Gal(b1-4)GlcNAc(b1-3)Gal(b1-4)GlcNAc(b1-3)Gal(b1-4)GlcNAc(b1-3)Gal(b1-4)GlcNAc(b1-2)Man(a1-3)[Gal(b1-4)GlcNAc(b1-3)Gal(b1-4)GlcNAc(b1-3)Gal(b1-4)GlcNAc(b1-3)Gal(b1-4)GlcNAc(b1-2)Man(a1-6)]Man(b1-4)GlcNAc(b1-4)[Fuc(a1-6)]GlcNAc
# How it was run: (§1)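 Columns mapping to the same glycan were averaged after glycan names were converted to IUPAC-condensed notation. The data come from 3228 arrays in the Consortium for Functional Glycomics database, limited to those with an available protein sequence. Binding is reported as a within-array Z-score averaged across arrays of one protein sequence and across linkers.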
# [2] = biological target: Gal(b1-4)GlcNAc(b1-3)Gal(b1-4)GlcNAc(b1-3)Gal(b1-4)GlcNAc(b1-3)Gal(b1-4)GlcNAc(b1-2)[Gal(b1-4)GlcNAc(b1-3)Gal(b1-4)GlcNAc(b1-3)Gal(b1-4)GlcNAc(b1-3)Gal(b1-4)GlcNAc(b1-6)]Man(a1-6)[Gal(b1-4)GlcNAc(b1-3)Gal(b1-4)GlcNAc(b1-3)Gal(b1-4)GlcNAc(b1-3)Gal(b1-4)GlcNAc(b1-2)Man(a1-3)]Man(b1-4)GlcNAc(b1-4)[Fuc(a1-6)]GlcNAc
# How it was run: as §1
# [3] = biological target: Gal(b1-4)GlcNAc(b1-3)Gal(b1-4)GlcNAc(b1-3)Gal(b1-4)GlcNAc(b1-3)Gal(b1-4)GlcNAc(b1-3)Gal(b1-4)GlcNAc(b1-2)Man(a1-3)[Gal(b1-4)GlcNAc(b1-3)Gal(b1-4)GlcNAc(b1-3)Gal(b1-4)GlcNAc(b1-3)Gal(b1-4)GlcNAc(b1-3)Gal(b1-4)GlcNAc(b1-2)Man(a1-6)]Man(b1-4)GlcNAc(b1-4)GlcNAc
# How it was run: as §1
# [4] = biological target: Gal(b1-4)GlcNAc(b1-3)Gal(b1-4)GlcNAc(b1-3)Gal(b1-4)GlcNAc(b1-3)Gal(b1-4)GlcNAc(b1-3)Gal(b1-4)GlcNAc(b1-2)Man(a1-3)[Gal(b1-4)GlcNAc(b1-3)Gal(b1-4)GlcNAc(b1-3)Gal(b1-4)GlcNAc(b1-3)Gal(b1-4)GlcNAc(b1-3)Gal(b1-4)GlcNAc(b1-2)Man(a1-6)]Man(b1-4)GlcNAc(b1-4)[Fuc(a1-6)]GlcNAc
# How it was run: as §1
# [5] = biological target: Gal(b1-4)GlcNAc(b1-3)Gal(b1-4)GlcNAc(b1-3)Gal(b1-4)GlcNAc(b1-3)Gal(b1-4)GlcNAc(b1-3)Gal(b1-4)GlcNAc(b1-2)[Gal(b1-4)GlcNAc(b1-3)Gal(b1-4)GlcNAc(b1-3)Gal(b1-4)GlcNAc(b1-3)Gal(b1-4)GlcNAc(b1-3)Gal(b1-4)GlcNAc(b1-6)]Man(a1-6)[Gal(b1-4)GlcNAc(b1-3)Gal(b1-4)GlcNAc(b1-3)Gal(b1-4)GlcNAc(b1-3)Gal(b1-4)GlcNAc(b1-3)Gal(b1-4)GlcNAc(b1-2)Man(a1-3)]Man(b1-4)GlcNAc(b1-4)[Fuc(a1-6)]GlcNAc
# How it was run: as §1
# [6] = biological target: Gal(b1-4)GlcNAc(b1-3)Gal(b1-4)GlcNAc(b1-3)Gal(b1-4)GlcNAc(b1-3)Gal(b1-4)GlcNAc(b1-3)Gal(b1-4)GlcNAc(b1-3)Gal(b1-4)GlcNAc(b1-2)Man(a1-3)[Gal(b1-4)GlcNAc(b1-3)Gal(b1-4)GlcNAc(b1-3)Gal(b1-4)GlcNAc(b1-3)Gal(b1-4)GlcNAc(b1-3)Gal(b1-4)GlcNAc(b1-3)Gal(b1-4)GlcNAc(b1-2)Man(a1-6)]Man(b1-4)GlcNAc(b1-4)GlcNAc
# How it was run: as §1
# [7] = biological target: Gal(b1-4)GlcNAc(b1-3)Gal(b1-4)GlcNAc(b1-3)GalNAc
# How it was run: as §1
# [8] = biological target: Gal(b1-4)GlcNAc(b1-3)Gal(b1-4)GlcNAc(b1-3)[Gal(b1-4)GlcNAc(b1-3)Gal(b1-4)GlcNAc(b1-6)]GalNAc
# How it was run: as §1
# [9] = biological target: Gal(b1-4)GlcNAc(b1-3)Gal(b1-4)GlcNAc(b1-6)[Gal(b1-3)]GalNAc
# How it was run: as §1
# [10] = biological target: Gal(b1-4)GlcNAc(b1-3)Gal(b1-4)[Fuc(a1-3)]GlcNAc(b1-3)Gal(b1-4)[Fuc(a1-3)]GlcNAc
# How it was run: as §1
# [11] = biological target: Gal(b1-4)GlcNAc(b1-3)GalNAc
# How it was run: as §1
# [12] = biological target: Gal(b1-4)GlcNAc(b1-3)[Fuc(a1-3)GlcNAc(b1-6)]Gal(b1-4)Glc
# How it was run: as §1
# [13] = biological target: Gal(b1-4)GlcNAc(b1-3)[Gal(b1-4)GlcNAc(b1-6)]Gal(b1-4)GlcNAc
# How it was run: as §1
# [14] = biological target: Gal(b1-4)GlcNAc(b1-3)[GlcNAc(b1-6)]Gal(b1-4)GlcNAc
# How it was run: as §1
# [15] = biological target: Gal(b1-4)GlcNAc(b1-6)Gal(b1-4)GlcNAc
# How it was run: as §1
# [16] = biological target: Gal(b1-4)GlcNAc(b1-6)GalNAc
# How it was run: as §1
# [17] = biological target: Gal(b1-4)GlcNAc(b1-6)[Gal(b1-3)]GalNAc
# How it was run: as §1
# [18] = biological target: Gal(b1-4)GlcNAc(b1-6)[Gal(b1-4)GlcNAc(b1-3)]GalNAc
# How it was run: as §1
# Gal(b1-4)GlcNAc6P = biological target: Gal(b1-4)GlcNAc6P
# How it was run: as §1
# Gal(b1-6)Gal = biological target: Gal(b1-6)Gal
# How it was run: as §1
# Gal3S(b1-3)GalNAc = biological target: Gal3S(b1-3)GalNAc
# How it was run: as §1
# Gal3S(b1-3)GlcNAc = biological target: Gal3S(b1-3)GlcNAc
# How it was run: as §1
# [19] = biological target: Gal3S(b1-3)[Fuc(a1-4)]GlcNAc
# How it was run: as §1
binder,measurement,setting,value
B1,glycan array binding signal (z-score),[1],3.91
same,glycan array binding signal (z-score),[2],-0.339
same,glycan array binding signal (z-score),[3],0.073
same,glycan array binding signal (z-score),[4],1.62
same,glycan array binding signal (z-score),[5],-0.585
same,glycan array binding signal (z-score),[6],2.5
same,glycan array binding signal (z-score),[7],0.189
same,glycan array binding signal (z-score),[8],0.599
same,glycan array binding signal (z-score),[9],-0.628
same,glycan array binding signal (z-score),[10],-0.588
same,glycan array binding signal (z-score),[11],-0.473
same,glycan array binding signal (z-score),[12],-0.42
same,glycan array binding signal (z-score),[13],-0.492
same,glycan array binding signal (z-score),[14],-0.106
same,glycan array binding signal (z-score),[15],-0.453
same,glycan array binding signal (z-score),[16],-0.542
same,glycan array binding signal (z-score),[17],1.6
same,glycan array binding signal (z-score),[18],-0.548
same,glycan array binding signal (z-score),Gal(b1-4)GlcNAc6P,-0.213
same,glycan array binding signal (z-score),Gal(b1-6)Gal,-0.135
same,glycan array binding signal (z-score),Gal3S(b1-3)GalNAc,-0.489
same,glycan array binding signal (z-score),Gal3S(b1-3)GlcNAc,-0.464
same,glycan array binding signal (z-score),[19],0.007
